The supplement of paper PMC3334620
In all, about 33,000 sequences were measured (“E-score (-0.5 to 0.5)”: median about -0.032, highest 2% from about 0.36 on). Some of the results follow.

Target: T1, Sko1 (UniProt Q02100)
T1 sequence: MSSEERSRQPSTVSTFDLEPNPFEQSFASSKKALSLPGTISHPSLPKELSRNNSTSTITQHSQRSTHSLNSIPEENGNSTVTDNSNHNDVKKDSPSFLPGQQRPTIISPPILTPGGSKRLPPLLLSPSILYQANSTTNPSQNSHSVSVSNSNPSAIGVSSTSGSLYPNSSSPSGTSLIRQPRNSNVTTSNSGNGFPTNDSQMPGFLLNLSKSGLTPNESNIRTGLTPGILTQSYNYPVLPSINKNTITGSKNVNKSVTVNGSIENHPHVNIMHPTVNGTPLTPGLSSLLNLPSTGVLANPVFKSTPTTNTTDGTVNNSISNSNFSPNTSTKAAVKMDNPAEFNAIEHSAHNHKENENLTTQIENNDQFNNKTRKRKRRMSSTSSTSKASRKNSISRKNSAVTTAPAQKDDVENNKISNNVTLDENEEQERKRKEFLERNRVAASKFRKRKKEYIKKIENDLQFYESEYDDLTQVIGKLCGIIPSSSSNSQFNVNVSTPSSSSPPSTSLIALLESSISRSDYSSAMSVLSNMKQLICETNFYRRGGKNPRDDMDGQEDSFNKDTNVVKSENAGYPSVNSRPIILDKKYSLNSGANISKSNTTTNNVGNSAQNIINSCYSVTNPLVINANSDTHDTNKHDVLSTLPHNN
Assay: PBM E-score (8-mer binding enrichment) (E-score (-0.5 to 0.5)); higher = stronger / more preferred TF binding; most listed sequences are background and not binding sites
Conditions: protein concentration: 200 nM; construct: GST-full length
In short: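 Bound GST-tagged yeast transcription factors, applied at about 100-200 nM to double-stranded universal all-10-mer Agilent arrays, were detected with fluorescent anti-GST. Scans were normalised with masliner. A modified Wilcoxon-Mann-Whitney statistic, the E-score, was assigned to each ungapped eight-base word pooled with its reverse complement by the Universal PBM Analysis Suite.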

| Sequence | PBM E-score |
| --- | --- |
| GCTGACCC | -0.164 |
| GCGGCGAA | -0.21 |
| GGGCTTAA | -0.0276 |
| TAGTAGAA | -0.0897 |
| ATTGTAGA | 0.12 |
| ATACAGTG | 0.106 |
| ACTTGGTA | 0.0545 |
| CTGGGGAC | -0.303 |
| GGGGTACC | -0.331 |
| AGTTATTC | 0.0588 |
| AAGCCTTA | -0.162 |
| AAAGACTG | -0.0799 |
| GTCGTGCA | 0.0146 |
| AGGGTAGG | -0.18 |
| AGTGGTTA | -0.0118 |
| CCATACGC | 0.177 |
| AAGATCAA | 0.0987 |
| GACACTAA | -0.122 |
| GATCTCAC | -0.0255 |
| ATCTATGC | 0.0234 |
| TCTCGTCA | 0.365 |
| CCGACTAA | -0.131 |

| Sequence | PBM E-score |
| --- | --- |
| GTTGCAAA | 0.167 |
| AATTAATC | 0.199 |
| AATAGCCA | 0.204 |
| AGGGTCTC | -0.27 |
| CTGCATGC | 0.0302 |
| CTCCGCGC | -0.267 |
| AGTGCCTC | -0.251 |
| CGCGATAG | 0.0737 |
| AACAGCCC | -0.0423 |
| ATCGTACG | 0.282 |
| AAACGCAC | 0.171 |
| GAGAACTC | -0.157 |
| CCCAGGTA | -0.256 |
| CCCCTCGA | -0.143 |
| CAATGGGC | -0.181 |
| GCTTATAC | -0.00941 |
| AGAGAGTA | -0.0216 |
| TCTGGAAA | 0.149 |
| GAGGCAAC | -0.144 |
| GTTGGTAA | 0.218 |
| ACGTCCAA | 0.288 |
| AAGGGATG | -0.0159 |

| Sequence | PBM E-score |
| --- | --- |
| TCCACCGA | -0.163 |
| CGCTGCTA | -0.315 |
| CGTGGAGA | 0.11 |
| ATGAGCGG | -0.135 |
| ACGATTCG | 0.059 |
| GGCTTAAC | 0.00826 |
| TACTGCTA | -0.159 |
| AGGGCCCT | -0.323 |
| ATCTGCTC | -0.145 |
| AAACACAT | 0.123 |
| AAATGACT | 0.0649 |
| GCAGGTTA | -0.156 |
| ACTGCGGG | -0.206 |
| ATCAGACG | 0.0845 |
| ATCCTCGG | -0.262 |
| AGTCGTAC | 0.101 |
| TGGAGCAA | -0.0445 |
| AGAATAGC | 0.073 |
| CCCAATAA | -0.0416 |
| GCGTTGAC | 0.184 |
| ACGAGGGG | -0.265 |
| AAAGTCAT | 0.161 |

| Sequence | PBM E-score |
| --- | --- |
| AGCCATTG | -0.03 |
| CACGAGGG | -0.153 |
| AGGACTAA | -0.134 |
| AGATCCAC | -0.0646 |
| AATGTGAC | 0.2 |
| GAGCGGAA | -0.0681 |
| ACAGGTAG | -0.135 |
| AGCAAGGA | -0.207 |
| CGTGTGCA | 0.181 |
| AAACGCGC | 0.0607 |
| CACCCGTC | -0.0108 |
| CAAGTGGG | -0.0643 |
| AAGTGTAA | -0.2 |
| ACTCACTG | -0.0231 |
| CAACGGCC | -0.335 |
| AACAACAA | 0.146 |
| CAATGCGA | 0.126 |
| CGCCCAAC | -0.115 |
| ACCGCTGG | -0.176 |
| AGGGACAG | -0.405 |
